Laboratory results as given in PubChem BioAssay AID1508642 (National Center for Advancing Translational Sciences (NCATS), 2021).
Among all 43,000 compounds or so, about 200 (0.47%) were called active. This list was built around the results that the source calls inconclusive (neither active nor inactive); the mix of calls is not that of the screen. Calls follow the shape of the dose curve; as a rule, active = well fitted cell-killing curve with a large enough effect; inconclusive = small, poorly fitted or top-dose-only effect, or effect the other way; inactive = flat fitted curve, though single readings scatter. A potency beside an inconclusive call is a rough fit, not a confirmed value.

assay: Cell viability qHTS assay in S16 Pmp22-F2sN cells; settings: S16 Pmp22-F2sN Schwann cells viability, CellTiter-Glo, 24 h; activity change, negative = cytotoxicity: at 57.5 µM (top of the series); also: nearly all actives have a fitted effect of over 65% in size
Procedure, shortened: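 Viability was measured by CellTiter-Glo luminescence (15 min, room temperature). This followed 24 h at 37 °C of compound exposure (23 nL pin transfer) in S16 Pmp22-F2sN Schwann cells, 500-1,000 per well.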
% is scaled to controls: 0 for no effect and ±100 for the full control effect; potency is read from the fitted curve at half-maximal effect; tags tell the direction and shape of the fitted curve.

SMILES	Potency	activity change, negative = cytotoxicity
Cc1nn(-c2ccccc2)c2sc(C(=O)Nc3cccc(O)c3)cc12	inconclusive: 31.6 µM [cytotoxic, single point]	
COc1ccc(CCNC(=O)CCCn2nc(C)c3sc4ccccc4c3c2=O)cc1OC		inactive: -9.65%
Cn1c(=O)cc(OCC(=O)NCc2ccc(F)cc2Cl)c2ccccc21	inconclusive: 3.98 µM [cytotoxic, full curve]	
COc1cc(OC)c(NC(=O)c2c3c(nn2C)-c2ccccc2SC3)cc1Cl	inconclusive: 39.8 µM [cytotoxic, single point]	
COc1cccc2c1Oc1ncccc1N(c1ccc(C(=O)NCc3cccc(C)c3)s1)C2	inconclusive: 39.8 µM [cytotoxic, single point]	
COc1ccc(-c2noc(CSc3nnc(-c4ccc(Cl)cc4)n3C)n2)cc1OC	inconclusive: 39.8 µM [cytotoxic, single point]	
CCOc1ccccc1NC(=O)CSc1nc2c(oc3ccccc32)c(=O)n1Cc1ccco1	inconclusive: 35.5 µM [cytotoxic, single point]	
COc1ccccc1Nc1c2c(nc3ccc(NC(=O)c4cccc(F)c4)cc13)CCCC2	inconclusive: 39.8 µM [cytotoxic, single point]	
COc1ccc(CNC(=O)c2c(Nc3ccccc3C)sc(C(=O)c3ccccc3)c2N)cc1	inconclusive: 39.8 µM [cytotoxic, single point]	
Cc1cccc(N2CCN(C(=O)c3ccc(NC(=O)c4nsc5ccccc45)cc3)CC2C)c1 (stereo unspecified)	inconclusive: 31.6 µM [cytotoxic, single point]	
CCCC(CCC)C(=O)Nc1cccc(-c2cn3cccnc3n2)c1	inconclusive: 31.6 µM [cytotoxic, single point]	
Cc1ccc(CNC(=O)c2ccc(-c3nc(CN4CCc5ccccc54)c(C)o3)cc2)cc1	inconclusive: 2.24 µM [rising, full curve, poor fit]	
CCOC(=O)C1CCN(C(=O)CSc2c3c(nc4ccc(Cl)cc24)CCCC3)CC1	inconclusive: 39.8 µM [cytotoxic, single point]	
CC(C)c1ccc(NS(=O)(=O)c2ccc3[nH]c(=O)ccc3c2)cc1	inconclusive: 39.8 µM [cytotoxic, single point]	
CNC(=O)c1cc2n(n1)CCCN(Cc1ccc(F)cc1)C2=O		inactive: -0.461%
CCOc1ccc(S(=O)(=O)NCCc2sc(-c3ccc(C)cc3)nc2C)cc1	inconclusive: 14.1 µM [cytotoxic, partial curve, poor fit]	
O=C(Nc1nc2nc(-c3ccccc3)cc(=O)n2[nH]1)c1ccc(F)cc1		inactive: -4.17%
Cc1ccc(C)c(N2CCN(C(=O)c3ccc4c(Cl)c5c(nc4c3)CCCC5)CC2)c1	inconclusive: 15.8 µM [rising, partial curve, poor fit]	
CCc1ccc(-c2nc3c(c(SCc4ccc(F)cc4)n2)Cc2c(CO)cnc(C)c2O3)cc1	inconclusive: 39.8 µM [cytotoxic, single point]	
COc1cc(OC)cc(C(=O)Nc2ccc3nc(N4CCC(C)CC4)cc(C)c3c2)c1	inconclusive: 1.78 µM [rising, partial curve, poor fit]	
COc1cccc(NC(CNS(=O)(=O)c2ccc(C)cc2)c2ccccc2)c1 (stereo unspecified)	inconclusive: 22.4 µM [cytotoxic, single point]	

SMILES	Potency	activity change, negative = cytotoxicity
CCN1C(=O)c2ccccc2Sc2ccc(NC(=O)c3ccc(C)c(F)c3)cc21	inconclusive: 39.8 µM [cytotoxic, single point]	
Cc1cc(-c2ccc(C)c(S(=O)(=O)NCc3ccc(Cl)cc3)c2)on1	inconclusive: 25.1 µM [cytotoxic, partial curve]	
O=C(c1nc(-c2ccc(Cl)cc2)n2c1CCCCC2)N1CCN(c2ccc(F)cc2)CC1	inconclusive: 39.8 µM [cytotoxic, single point]	
CCCOc1ccc(OC(=O)c2sc3ncn(Cc4cccc(F)c4)c(=O)c3c2C)cc1	inconclusive: 0.0562 µM [cytotoxic, full curve, poor fit]	
Cc1csc2nc(-c3cccc(NC(=O)c4cccc(F)c4)c3)cn12	inconclusive: 4.47 µM [rising, full curve, poor fit]	
Cc1ccc(C(=O)c2oc3ccccc3c2NC(=O)c2nc(S(C)(=O)=O)ncc2Cl)cc1F	inconclusive: 39.8 µM [cytotoxic, single point]	
CC(C)CN(CCNC(=O)c1cc(=O)[nH]c2ccc(S(=O)(=O)N3CCCCCC3)cc12)CC(C)C	inconclusive: 1 µM [rising, full curve, poor fit]	
Cc1ccc(-n2ncc(C(=O)NCc3cccs3)c2C2CCN(C(=O)OC(C)(C)C)CC2)cc1C	inconclusive: 39.8 µM [cytotoxic, single point]	
CC(=O)N1CCCc2cc(S(=O)(=O)N(C)CC(=O)Nc3ccc(F)c(Cl)c3)ccc21	inconclusive: 31.6 µM [cytotoxic, single point]	
CC(C)Oc1ccc(CNC(=O)Cc2ccc(NC(=O)N3CCSc4ncccc43)cc2)cc1		inactive: -2.64%
COc1ccc2c(Sc3ccccc3)c(C(=O)NCCN(C)C)[nH]c2c1	inconclusive: 17.8 µM [cytotoxic, partial curve]	
CC(C)Cn1c(=O)c2ccccc2n2c(-c3ccc(Br)cc3)nnc12		inactive: -25.4%
Cc1ccc(CNC(=O)c2nc(SCc3cccc(C)c3)ncc2Cl)cc1		inactive: -17.9%
CCN(Cc1ccc(OC)cc1)c1ccc(-c2nc(-c3ccncc3)no2)cc1[N+](=O)[O-]	inconclusive: 39.8 µM [cytotoxic, partial curve, poor fit]	
COc1ccc(-c2cc(C(=O)N3CCN(c4ccccc4OC)CC3)c3cc(C(C)C)ccc3n2)cc1	inconclusive: 25.1 µM [cytotoxic, partial curve]	
O=C1CC(c2ccccc2)Cc2[nH]c(=O)c(-c3nc(-c4cccc(Cl)c4)cs3)cc21 (stereo unspecified)	inconclusive: 7.94 µM [cytotoxic, full curve, poor fit]	
COc1ccc(CNC(=O)C(=O)NCC(c2ccc3c(c2)OCO3)N2CCOCC2)cc1 (stereo unspecified)		inactive: -0.269%
Cc1ccccc1-n1c(SCC(=O)c2ccccc2)nnc1-c1ccc(F)cc1	inconclusive: 39.8 µM [cytotoxic, single point]	
COc1ccc(Cn2c(CCC(=O)Nc3cc(C)cc(C)c3)nc3cccnc32)cc1	inconclusive: 39.8 µM [cytotoxic, single point]	
O=C(NCC(c1ccco1)S(=O)(=O)c1ccc(Cl)cc1)c1ccc(C(F)(F)F)cc1 (stereo unspecified)	inconclusive: 20 µM [cytotoxic, partial curve, poor fit]	
CCOc1ccc(CCNC(=O)c2ccc3nc(N4CCC(C)CC4)sc3c2)cc1OCC		inactive: -3.2%

SMILES	Potency	activity change, negative = cytotoxicity
Cc1cc(N2CCN(C)CC2)nc2ccc(NC(=O)Nc3ccc(F)cc3)cc12	inconclusive: 25.1 µM [cytotoxic, partial curve]	
CC(=O)N1CCCc2cc(S(=O)(=O)N3CCCC(C(=O)Nc4ccc(F)cc4F)C3)ccc21 (stereo unspecified)	inconclusive: 28.2 µM [cytotoxic, single point]	
O=C(CCC(=O)N1CCOc2ccccc21)NCc1cccs1		inactive: 1.32%
CCN1CCC(N(Cc2ccc(F)cc2)C(=O)Nc2ccc(C)c(F)c2)CC1		inactive: 7.93%
CC1=C(C(=O)NCc2cccc(Cl)c2)C2(CCCCCC2)OC1=O	inconclusive: 39.8 µM [cytotoxic, single point]	
O=C(C1CCCCC1)N(Cc1cccnc1)c1nc2ccc(Cl)cc2s1	inconclusive: 39.8 µM [cytotoxic, single point]	
COc1ccccc1-c1cc(C(F)(F)F)nc(S(=O)(=O)CCCC(=O)Nc2ccc(F)cc2F)n1	inconclusive: 39.8 µM [cytotoxic, single point]	
Cc1cccc(C(=O)Nc2nc(-c3nnn(-c4cc(C)ccc4C)c3C)ns2)c1	inconclusive: 39.8 µM [cytotoxic, single point]	
COc1ccc(-n2nc(C(=O)Nc3cccc(C)n3)c3c4ccccc4n(C)c3c2=O)cc1	inconclusive: 7.08 µM [cytotoxic, single point]	
CN(C)CCNC(=O)c1ccc(Cn2c(=O)c3cccn3c3cccnc32)cc1		inactive: -6.2%
Cc1ccc(Cl)cc1NC(=O)Cn1ncc2c(C)n(Cc3ccccc3F)c(C)c2c1=O		inactive: -3.38%
COc1cc(C(=O)Nc2nonc2-c2ccc(Cl)cc2)cc(OC)c1OC	inconclusive: 39.8 µM [cytotoxic, single point]	
COc1ccccc1NC(=O)CSc1oc(-c2ccc(F)cc2)nc1S(=O)(=O)c1ccc(Br)cc1	inconclusive: 31.6 µM [cytotoxic, single point]	
Cc1ccccc1CNC(=O)c1ccc2[nH]c(C)c(C)c2c1		inactive: -11.5%
COc1cccc(CC(=O)Nc2ccc3nc(Nc4cccc(C(F)(F)F)c4)cc(C)c3c2)c1	inconclusive: 0.1 µM [cytotoxic, full curve, poor fit]	
O=c1c2sc3ccccc3c2n(Cc2ccc(Cl)cc2)c(=O)n1Cc1ccco1	inconclusive: 0.316 µM [rising, full curve, poor fit]	
Clc1cccc(-n2ncc3c(NC4CCCCCC4)ncnc32)c1	inconclusive: 39.8 µM [cytotoxic, single point]	
CN(C)c1ccc(NC(=O)Cn2cc(S(=O)(=O)Cc3ccccc3Cl)c3ccccc32)cc1	inconclusive: 39.8 µM [cytotoxic, single point]	
Cc1ccc2nc3c(c(Nc4ccc(C)c(C)c4)c2c1)CCC3	inconclusive: 39.8 µM [cytotoxic, single point]	
